In patent US20260216242A1, “ALPP-SPECIFIC VARIANT ANTIGEN BINDING MOLECULES” (ALMAC DISCOVERY LIMITED, priority 2022, published 2026):

T1: hALPI (Homo sapiens, UniProt P09923)
T1 sequence (P09923 with tags, fused parts or gaps): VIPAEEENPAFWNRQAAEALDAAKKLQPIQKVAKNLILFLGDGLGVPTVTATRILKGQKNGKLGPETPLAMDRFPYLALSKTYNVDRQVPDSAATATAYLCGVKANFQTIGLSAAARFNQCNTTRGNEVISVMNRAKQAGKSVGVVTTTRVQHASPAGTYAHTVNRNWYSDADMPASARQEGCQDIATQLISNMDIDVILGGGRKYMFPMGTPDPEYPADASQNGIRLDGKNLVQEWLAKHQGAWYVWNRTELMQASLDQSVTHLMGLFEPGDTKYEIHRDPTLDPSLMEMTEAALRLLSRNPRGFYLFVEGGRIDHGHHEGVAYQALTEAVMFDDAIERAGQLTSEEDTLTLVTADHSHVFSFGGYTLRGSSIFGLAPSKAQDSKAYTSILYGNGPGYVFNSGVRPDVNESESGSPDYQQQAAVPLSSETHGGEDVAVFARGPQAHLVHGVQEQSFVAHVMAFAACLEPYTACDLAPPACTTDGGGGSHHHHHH

B1: B01-hFc (S239C): B01 VHH fused via [G4S]3 linker to human IgG1 Fc with S239C (protein)
chain: QVQLVESGGGLVQAGGSLRLSCEVTRSPMPIDTMAWYRQAPGRQRELVAIISRSGSTNYADSVKGRFTISRNDTKSTMYKSTMYLKMNTLELEDTGVYYCNAVGLWNGAEYWGQGTQVTVSSGGGGSGGGGSGGGGS[human IgG1 Fc with changes not spelt out]
B2: C07-hFc (S239C): C07 VHH fused via [G4S]3 linker to human IgG1 Fc with S239C (protein)
chain: QVQLVESGGGLVQAGESLRLACAASGTIFSGNAVGWYRQAPEKQREWVSSITDYGDTDYAEAVKGRFTISRDNAKNTVYLQMNSLKPEDTAVYYCYVYQRGESEEYWGQGTQVTVSSGGGGSGGGGSGGGGS[human IgG1 Fc with changes not spelt out]
B3: D10-hFc (S239C): D10 VHH fused via [G4S]3 linker to human IgG1 Fc with S239C (SEQ ID NO: 98) (protein)
chain: QVQLVESGGGLVQPGGSLRLSCAASGSIFSVNTMGWYRQAPGKQRDLVAVATSGGTIHYADSVKGRFTISRDNAKNTVYLQMNSLKPEDTAVYYCNLVVPYGMIAGDHDYWGQGTKVTVSSGGGGSGGGGSGGGGS[human IgG1 Fc with changes not spelt out]
B4: E06-hFc (S239C): E06 VHH fused via [G4S]3 linker to human IgG1 Fc with S239C (SEQ ID NO: 99) (protein)
chain: QVHLVESGGGLVQAGGSLRLSCAASRRSFSEYAMGWFRQAPGKEREFVAAIGWSGVIEYADSVKGRFTISRDNAKDTVYLQMNSLKPEDTAVYYCAAGLGIRVVSQTPAYWGQGTQVTVSSGGGGSGGGGSGGGGS[human IgG1 Fc with changes not spelt out]
B5: E10-hFc (S239C): E10 VHH fused via [G4S]3 linker to human IgG1 Fc with S239C (SEQ ID NO: 100) (protein)
chain: QVQLVESGGGLVQAGGSLRLSCAVSGRALSDYNIGWFRQAPGKEREFVARKTWDGSSTRYDDSVKGRFTVSIEDAKNTAYLQMSSLKTEDTAVYYCAAGRYSRARGWEYDYWGQGTQVTVSSGGGGSGGGGSGGGGS[human IgG1 Fc with changes not spelt out]
B6: F05-hFc (S239C): F05 VHH fused via [G4S]3 linker to human IgG1 Fc with S239C (SEQ ID NO: 101) (protein)
chain: QVQLVESGGGLVQAGGSLRLSCAASGRAFGDYNIGWFRQAPGKEREFVARRTWDGSSTRYDDSVKGRFTVSIDNAKNTAYLQMNSLKTEDTAVYYCAAGRYSRVRGWEYDYWGQGTQVTVSSGGGGSGGGGSGGGGS[human IgG1 Fc with changes not spelt out]
B7: A06-hFc (S239C): A06 VHH fused via [G4S]3 linker to human IgG1 Fc with S239C (SEQ ID NO: 97) (protein)
chain: QVHLVESGGGLVQAGGSLRLSCAASGRTFLSMGWFRQAPGKEREFVAAISWTGGSTGYADSVKGRFTISRESDKETMYLQMNSLKPEDTAVYYCAARGDVYYGGDDATRYKYWGQGTQVTVSSGGGGSGGGGSGGGGS[human IgG1 Fc with changes not spelt out]

Each molecule was assayed against T1, hALPI (assay: BLI binding to ALPI His). Details: VHH-hFc.
Procedure: Binding kinetics were determined using the Biolayer Interferometry (BLI) Octet K2 system (Sartorius). Human ALPP, ALPPL2, ALPL (each fused with a cysteine stabilised leucine zipper) and ALPI, (SEQ ID NO: 265, SEQ ID NO: 266 and SEQ ID NO: 267 and SEQ ID NO: 264 respectively) were immobilised in sodium acetate pH5 buffer to AR2G sensors using amine coupling. All assays were conducted in PBS with a plate temperature of 25° C. Ka (M^−1s^−1), Kd (s^−1) and KD (nM) values were determined using Octet Data Analysis High Throughput software (ForteBio) for Biolayer Interferometry.
(§1) Binding kinetics were determined using the Biolayer Interferometry (BLI) Octet K2 or R4 system (Sartorius). Human ALPP, ALPPL2 and ALPL all fused with a disulphide stabilised leucine zipper (SEQ ID NO: 265, SEQ ID NO: 266, and SEQ ID NO: 267) and ALPI His (SEQ ID NO: 264) were used in BLI experiments. For KD apparent measurements, the ALPP proteins were immobilised in sodium acetate pH5 buffer to AR2G sensors using amine coupling. To measure 1:1 interactions, AHC biosensors were used to immobilise Fc-fused proteins. All assays were conducted in HBS-EP with a plate temperature of 25° C. Ka (M^−1s^−1), Kd (s^−1) and KD (nM) values were determined using Octet Data Analysis High Throughput software (Sartorius) for Biolayer Interferometry.
as §1, with “NO:264)” for “NO: 264)”

Question: B1 was tested. Which hALPI did it give?
Answer: Low level binding

Question: B2 was tested. Which hALPI did it give?
Answer: No binding

Question: For B3, which hALPI is on record?
Answer: No binding

Question: B4 was tested. Which hALPI did it give?
Answer: No binding

Question: How did the hALPI turn out when B5 was run?
Answer: No binding

Question: For B6, which hALPI is on record?
Answer: No binding

Question: For B7, which hALPI is on record?
Answer: No binding

Substitutions are numbered along the chain they refer to. Numbers in names are those of the source.
